Results on seven molecules are retold here after publication PMC6518801.

Results are given in words; binding and its absence hold for the method and conditions named. Binding seen in cells or lysates may run through a third protein. Some binding calls cover weakened binding; strength is not graded here. For some assays here: Where a sequence is shown, tags or fusion partners need not be part of it.

Test [1] deals with HA-tagged wild-type c-Cbl (UniProt P22681). The experiment in a line: co-IP; 293T cells co-transfected with FLAG-TRAF6 and HA-c-Cbl constructs, 36 h; lysis in 0.5% Nonidet P-40, 50 mM Tris-HCl pH 8.0, 150 mM NaCl, 1 mM EDTA; IP with anti-HA or anti-FLAG Ab 2 h at 4 °C, protein G-agarose; western blot with anti-FLAG or anti-HA. On the technique in general: In western blotting, separated proteins are transferred to a membrane and probed.

The target of test [2] is HA c-Cbl 1-421 (UniProt P22681). The description is as above.
Test [3] concerns the target HA c-Cbl 1-436 (UniProt P22681). Described as above.
In test [4] the target is HA c-Cbl 1-480 (UniProt P22681). Described as above.
In test [5] the target is HA c-Cbl-1-357 (UniProt P22681). The description is as above.
The target of test [6] is HA-c-Cbl 1-655 (UniProt P22681). The description is as above.
In test [7] the target is HA-tagged c-Cbl G306E mutant (UniProt P22681). The test is described as above.
Test [8] addresses endogenous c-Cbl (not stated (endogenous in osteoclasts and bone marrow macrophages)) (UniProt P22682). The experiment in a line: co-IP; endogenous proteins; osteoclasts differentiated from bone marrow precursors, stimulated with RANKL for the indicated times; 0.5% Nonidet P-40 lysis buffer; IP with anti-cbl Ab, blot with anti-TRAF6.
The target is the same in test [9]. The experiment in a line: co-IP; endogenous proteins; bone marrow macrophages (M-CSF 30 ng/ml, three days), stimulated with IFN-γ (20 ng/ml) for the indicated times; 0.5% Nonidet P-40 lysis buffer; IP with anti-cbl Ab, blot with anti-TRAF6.

B1: Flag-TRAF6-1-289 (domain or fragment, UniProt P70196 1-289)
chain: MSLLNCENSCGSSQSSSDCCAAMAASCSAAVKDDSVSGSASTGNLSSSFMEEIQGYDVEFDPPLESKYECPICLMALREAVQTPCGHRFCKACIIKSIRDAGHKCPVDNEILLENQLFPDNFAKREILSLTVKCPNKGCLQKMELRHLEDHQVHCEFALVNCPQCQRPFQKCQVNTHIIEDCPRRQVSCVNCAVSMAYEEKEIHDQSCPLANIICEYCGTILIREQMPNHYDLDCPTAPIPCTFSVFGCHEKMQRNHLARHLQENTQLHMRLLAQAVHNVNLALRPCDA
With B1, the binding result in test [1] was “binds”.

B2: FLAG-tagged wild-type TRAF6 (tumor necrosis factor receptor-associated factor 6) (protein, UniProt P70196 1-530)
chain: MSLLNCENSCGSSQSSSDCCAAMAASCSAAVKDDSVSGSASTGNLSSSFMEEIQGYDVEFDPPLESKYECPICLMALREAVQTPCGHRFCKACIIKSIRDAGHKCPVDNEILLENQLFPDNFAKREILSLTVKCPNKGCLQKMELRHLEDHQVHCEFALVNCPQCQRPFQKCQVNTHIIEDCPRRQVSCVNCAVSMAYEEKEIHDQSCPLANIICEYCGTILIREQMPNHYDLDCPTAPIPCTFSVFGCHEKMQRNHLARHLQENTQLHMRLLAQAVHNVNLALRPCDAASPSRGCRPEDPNYEETIKQLESRLVRQDHQIRELTAKMETQSMYVGELKRTIRTLEDKVAEMEAQQCNGIYIWKIGNFGMHLKSQEEERPVVIHSPGFYTGRPGYKLCMRLHLQLPTAQRCANYISLFVHTMQGEYDSHLPWPFQGTIRLTILDQSEALIRQNHEEVMDAKPELLAFQRPTIPRNPKGFGYVTFMHLEALRQGTFIKDDTLLVRCEVSTRFDMGGLRKEGFQPRSTDAGV
In the case of B2, the binding entry in test [2] is “binds weakly”; in [3] it was “binds weakly”; in [4], “binds”; in test [5], “no binding”; in test [6], “binds”; in test [7] it was “binds”. Moreover, in test [1], the binding result is on record as “binds”.

B3: endogenous polyubiquitinated TRAF6 (protein, UniProt P70196 1-530)
chain: B2 chain
modifications: polyubiquitinated (sites not given)
B3: the binding result in [8] and in [9] was “binds” throughout.

B4: Flag-TRAF6-132-530 (domain or fragment, UniProt P70196 132-530)
chain: VKCPNKGCLQKMELRHLEDHQVHCEFALVNCPQCQRPFQKCQVNTHIIEDCPRRQVSCVNCAVSMAYEEKEIHDQSCPLANIICEYCGTILIREQMPNHYDLDCPTAPIPCTFSVFGCHEKMQRNHLARHLQENTQLHMRLLAQAVHNVNLALRPCDAASPSRGCRPEDPNYEETIKQLESRLVRQDHQIRELTAKMETQSMYVGELKRTIRTLEDKVAEMEAQQCNGIYIWKIGNFGMHLKSQEEERPVVIHSPGFYTGRPGYKLCMRLHLQLPTAQRCANYISLFVHTMQGEYDSHLPWPFQGTIRLTILDQSEALIRQNHEEVMDAKPELLAFQRPTIPRNPKGFGYVTFMHLEALRQGTFIKDDTLLVRCEVSTRFDMGGLRKEGFQPRSTDAGV
With B4, the binding result in test [1] is reported as “binds”.

B5: Flag-TRAF6-69-530 (domain or fragment, UniProt P70196 69-530)
chain: ECPICLMALREAVQTPCGHRFCKACIIKSIRDAGHKCPVDNEILLENQLFPDNFAKREILSLTVKCPNKGCLQKMELRHLEDHQVHCEFALVNCPQCQRPFQKCQVNTHIIEDCPRRQVSCVNCAVSMAYEEKEIHDQSCPLANIICEYCGTILIREQMPNHYDLDCPTAPIPCTFSVFGCHEKMQRNHLARHLQENTQLHMRLLAQAVHNVNLALRPCDAASPSRGCRPEDPNYEETIKQLESRLVRQDHQIRELTAKMETQSMYVGELKRTIRTLEDKVAEMEAQQCNGIYIWKIGNFGMHLKSQEEERPVVIHSPGFYTGRPGYKLCMRLHLQLPTAQRCANYISLFVHTMQGEYDSHLPWPFQGTIRLTILDQSEALIRQNHEEVMDAKPELLAFQRPTIPRNPKGFGYVTFMHLEALRQGTFIKDDTLLVRCEVSTRFDMGGLRKEGFQPRSTDAGV
As to B5, the binding entry in [1] is “binds”.

B6: Flag-TRAF6-289-530 (domain or fragment, UniProt P70196 289-530)
chain: AASPSRGCRPEDPNYEETIKQLESRLVRQDHQIRELTAKMETQSMYVGELKRTIRTLEDKVAEMEAQQCNGIYIWKIGNFGMHLKSQEEERPVVIHSPGFYTGRPGYKLCMRLHLQLPTAQRCANYISLFVHTMQGEYDSHLPWPFQGTIRLTILDQSEALIRQNHEEVMDAKPELLAFQRPTIPRNPKGFGYVTFMHLEALRQGTFIKDDTLLVRCEVSTRFDMGGLRKEGFQPRSTDAGV
Consider B6, for which the binding result in test [1] is given as “no binding”.

B7: Flag-TRAF6-212-530 (domain or fragment, UniProt P70196 212-530)
chain: NIICEYCGTILIREQMPNHYDLDCPTAPIPCTFSVFGCHEKMQRNHLARHLQENTQLHMRLLAQAVHNVNLALRPCDAASPSRGCRPEDPNYEETIKQLESRLVRQDHQIRELTAKMETQSMYVGELKRTIRTLEDKVAEMEAQQCNGIYIWKIGNFGMHLKSQEEERPVVIHSPGFYTGRPGYKLCMRLHLQLPTAQRCANYISLFVHTMQGEYDSHLPWPFQGTIRLTILDQSEALIRQNHEEVMDAKPELLAFQRPTIPRNPKGFGYVTFMHLEALRQGTFIKDDTLLVRCEVSTRFDMGGLRKEGFQPRSTDAGV
Take B7: the binding result in test [1] is “binds”.
